Assay results as given in PubChem BioAssay AID686978 (National Center for Advancing Translational Sciences (NCATS), 2013).
The campaign covered roughly 420,000 compounds. About 64,000 (15%) were called active. The inconclusive results got no clear call from the source; some entries with a clear call stand among them for comparison. The call rests on the fitted dose curve; in most records, active means well fitted inhibition curve with a large enough effect; inconclusive means small, poorly fitted or top-dose-only effect; inactive means flat fitted curve, though single readings scatter. Potencies of inconclusive entries are left out as doubtful fits.
On the % scale 0 is the no-effect control and ±100 the full control effect; potency means the concentration at half of the fitted maximal effect; tags describe the fitted curve by direction and shape.

Experiment: qHTS for Inhibitors of human tyrosyl-DNA phosphodiesterase 1 (TDP1): qHTS in cells in absence of CPT; further: nearly all actives have a fitted effect of over 55% in size
Conditions: DT40 Tdp1-/- hTDP1 cells, no CPT, ATP luminescence, 48 h; activity change, negative = growth inhibition: at 46.2 µM (top of the series)
Outline: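 No-CPT arm: Tdp1-/-;hTDP1 DT40 cells (400/well) plus compounds, incubated ≥48 hr at 37 °C. Readout CellTiter-Glo luminescence.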
For `CCc1ccc(CNC(=O)CSc2c3c(nc4ccc(Cl)cc24)CCCC3)cc1`, the Potency was inconclusive [inhibitor, single point]. With `CCN(CC)CCNCC1C(=O)O[C@@H]2C[C@@]3(C)CCC[C@H](C)C3=C[C@H]12` (stereo partly specified) the Potency was active: 13 µM. With `CCCCn1c(SCC(=O)N2CC(C)CC(C)C2)nc2cc(S(N)(=O)=O)ccc21` (stereo unspecified) the Potency was inconclusive [inhibitor, single point]. For `Cc1ccc2c(c1)C(c1ccccc1)N(C(=O)c1ccc(S(=O)(=O)N3CCCCC3)cc1)CC(=O)N2` (stereo unspecified), the Potency was inconclusive [inhibitor, single point]. With `COc1ccc(CN2CC[C@@H]3CN(C(C)=O)[C@H](c4ccccc4Br)C[C@@H]32)cc1` the Potency was inconclusive [inhibitor, single point]. With `O=C(CSc1nc2ccccc2o1)Nc1nc(-c2ccccc2)c(-c2ccccc2)s1` the Potency was active: 11.6 µM. With `CCCN1CCC(NCC(C)c2ccccc2)CC1` (stereo unspecified) the Potency was inconclusive [inhibitor, single point]. With `c1ccc(COc2ccc(OCCCN3CCCC3)cc2)cc1` the Potency was inconclusive [inhibitor, single point]. For `Cc1oc(-c2ccc(Cl)cc2)nc1CS(=O)CC(=O)NCCCN1CC(C)CC(C)C1` (stereo unspecified), the Potency was inconclusive [inhibitor, single point]. With `CC1CCN(CC(=O)Nc2ccc(S(=O)(=O)N3C(C)CCCC3C)cc2)CC1` (stereo unspecified) the Potency was active: 14.6 µM. For `Cc1nc(N2CCN(C)CC2)c2sc(=S)n(-c3ccccc3)c2n1`, the Potency was inconclusive [inhibitor, single point]. With `O=C(NC1CCCc2ccccc21)C1CCN(S(=O)(=O)c2cccc3nsnc23)CC1` (stereo unspecified) the Potency was inconclusive [inhibitor, single point]. With `Oc1c(C(c2ccccc2)N2CCN(c3cccc(Cl)c3)CC2)sc2nc(-c3ccco3)nn12` (stereo unspecified) the Potency was inconclusive [inhibitor, single point]. In the case of `O=C1C=C(c2ccc(C(=O)O)cc2)C[C@@H](c2ccc(F)cc2)C1`, the Potency is reported as “inactive”. For `Cn1c(Cn2c(=O)sc3ccccc32)nnc1SCc1cccc(F)c1`, the Potency was inconclusive [inhibitor, single point]. For `CCOC(=O)N1CCN(Cc2nc3cc(NC(=O)c4ccco4)ccc3n2CC)CC1`, the activity change, negative = growth inhibition was inconclusive: -32.2% [inhibitor]. For `COC(=O)COc1ccc2c(c1)O/C(=C\c1cccc([N+](=O)[O-])c1)C2=O`, the Potency was active: 13 µM. In the case of `CC(C)C[C@@H]1CN=C(N)N1C[C@@H]1CCCN1C[C@@H](C(C)C)N1C[C@@H](Cc2ccccc2)N(CCc2ccc(Cl)c(Cl)c2)C1=N`, the Potency is reported as “inactive”. In the case of `O=S(=O)(c1ccc2c(c1)OCCO2)N1CCc2ccccc21`, the activity change, negative = growth inhibition is reported as inconclusive: -30.6% [inhibitor]. For `Cc1ccc(NC(=O)c2cc3nc(-c4ccc5c(c4)OCO5)cc(C(F)(F)F)n3n2)cc1Cl`, the Potency was “inactive”. In the case of `COC(=O)C1C(O)CC[C@H]2CN3CCc4c([nH]c5ccccc45)C3C[C@H]12` (stereo partly specified), the Potency is reported as inconclusive [inhibitor, single point]. In the case of `COc1ccccc1N1CCN(C(=O)CCc2ccc(S(=O)(=O)NCC(C)C)cc2)CC1`, the Potency is reported as active: 23.1 µM. With `CCN1C(=O)/C(=C/c2cnn(CC)c2C)SC1=S` the Potency was inconclusive [inhibitor, partial curve]. With `CCC(C(=O)OCC(=O)N(CCOC)c1c(N)n(Cc2ccccc2)c(=O)[nH]c1=O)c1ccccc1` (stereo unspecified) the Potency was “inactive”. With `Cc1cc(/C=C(\C#N)C(=O)Nc2ccccc2)c(C)n1-c1ccc2c(c1)OCO2` the Potency was active: 16.4 µM. In the case of `O=C(NC1=NN(c2ccccc2)CC1)Nc1ccccc1F`, the Potency is reported as inconclusive [inhibitor, single point]. With `CCOC(=O)c1cc2c(=O)n3cccc(C)c3nc2n(CCCOC)c1=NC(=O)c1cccnc1` the Potency was active: 23.1 µM. In the case of `O=c1c(=O)n(-c2ccccc2)ccn1Cc1cccc(C(F)(F)F)c1`, the Potency is reported as inconclusive [inhibitor, single point]. In the case of `CCN(CC)c1ccc(/C=N/NC(=O)c2cccc(S(=O)(=O)Nc3ccccc3OC)c2)c(O)c1`, the Potency is reported as active: 2.91 µM. With `CCOC(=O)c1cnc2c(C(=O)OC)cccc2c1NCCN1CCOCC1` the Potency was “inactive”. For `O=C1COc2ccc(-c3cc(-c4ccc(F)cc4)c4c(n3)-c3cc(Cl)ccc3OC4)cc2N1`, the Potency was inconclusive [inhibitor, partial curve, poor fit]. With `Cc1cc(COc2ccccc2)oc1C(=O)O` the Potency was “inactive”. With `O=C(C[n+]1ccc2ccccc2c1)c1ccc2ccc3ccccc3c2c1` the Potency was active: 4.11 µM. For `CC(=O)NCc1ccc(C(=O)COC(=O)COc2ccc(Cl)c(C)c2)s1`, the Potency was “inactive”. In the case of `Cc1ccc(N2C(=O)C(CN3CCCCC3)C2c2ccccc2)cc1` (stereo unspecified), the Potency is reported as active: 18.4 µM. For `Cc1ccc(Oc2ccc(NC(=O)CCC(=O)OCC(=O)c3cccs3)cc2)cc1C`, the Potency was inconclusive [inhibitor, partial curve, poor fit]. For `CCCCn1c(N)c(N(CCOC)C(=O)COc2ccc(Cl)cc2)c(=O)[nH]c1=O`, the Potency was “inactive”. For `COc1ccccc1CNS(=O)(=O)c1cc(Br)cc2c1N(C(C)=O)C(C)C2` (stereo unspecified), the Potency was inconclusive [inhibitor, single point]. For `O=C(Nc1ccc(N2CCCC2)cc1)c1ccccc1[N+](=O)[O-]`, the Potency was inconclusive [inhibitor, single point]. With `COc1ccc(OC)c(NC(=O)COC(=O)c2ccc(OC)c(S(=O)(=O)N3CCCC3)c2)c1` the Potency was inconclusive [inhibitor, partial curve]. In the case of `COc1cccc(CNC(=O)Cc2ccc(NC(=O)C3=C(C)OCCS3)cc2)c1`, the Potency is reported as “inactive”. With `CCCCCNC(=O)C1C(=O)Nc2ccccc2C(=O)N1c1ccc(OC)cc1` (stereo unspecified) the Potency was inconclusive [inhibitor, single point]. In the case of `O=C(CCN1C(=O)S/C(=C\c2cccs2)C1=O)NC1=NCCS1`, the Potency is reported as “inactive”. In the case of `CCCN1CCN(S(=O)(=O)c2ccc3c(c2)OCCO3)CC1`, the Potency is reported as “inactive”. In the case of `C/C(N)=C(/C#N)C(=O)CSc1nc2scc(-c3ccc(F)cc3)c2c(=O)n1C`, the Potency is reported as inconclusive [inhibitor, single point]. In the case of `COc1ccccc1NC(=O)c1cc(-c2ccc(OC)c(OC)c2)nc2ccccc12`, the Potency is reported as active: 9.2 µM. With `O=C(Cc1cccs1)Nc1ccccc1` the Potency was “inactive”. With `COc1cc(-c2nc3ccccn3c2/N=C/c2cccc(OC)c2O)ccc1O` the Potency was inconclusive [inhibitor, single point]. With `O=c1cc(-c2ccccc2)nc2n1Cc1ccccc1-2` the Potency was inconclusive [inhibitor, single point]. For `CN(C(=O)c1ccc(-c2nn(C)c(=O)c3ccccc23)cc1)C1CCCCC1`, the Potency was active: 16.4 µM. With `O=C(Nc1ccc(Br)c2ccccc12)c1ccc2ccccc2c1O` the Potency was active: 8.2 µM. In the case of `Cc1oc(-c2ccccc2F)nc1CSCC(=O)NCc1ccccc1`, the Potency is reported as inconclusive [inhibitor, single point]. For `O=C(COC(=O)c1ccc2c(c1)OCCO2)NCc1ccc(Cl)cc1`, the Potency was inconclusive [inhibitor, single point]. In the case of `CC(C)Nc1nc(-c2ccccc2F)c2sc(-c3ccccc3)cc2n1`, the Potency is reported as inconclusive [inhibitor, single point]. For `CCn1ncc([N+](=O)[O-])c1C(=O)Nc1ccc(C)c(C)c1`, the Potency was “inactive”. With `CCOC(=O)N1CCN(C(=O)/C(=C/c2cccc3ccccc23)NC(=O)c2ccc(OC)cc2)CC1` the Potency was inconclusive [inhibitor, single point]. In the case of `CCC(C)(C(=O)NC1CCCC1)N(Cc1ccco1)C(=O)c1ccc2c(c1)OCO2` (stereo unspecified), the Potency is reported as active: 7.31 µM. In the case of `CCOC(=O)COc1cccc2c(=O)n(CC(=O)N3CCC(C)CC3)ccc12`, the Potency is reported as inconclusive [inhibitor, single point]. In the case of `Cc1ccc(C2Oc3ccccc3C3=C2C(c2cccs2)n2ncnc2N3)cc1` (stereo unspecified), the Potency is reported as inconclusive [inhibitor, single point]. For `CCOC(=O)Cn1nnnc1C(CC)N(Cc1cccs1)Cc1cc2cc(C)ccc2[nH]c1=O` (stereo unspecified), the Potency was inconclusive [inhibitor, single point]. With `CC(=O)Nc1nc2ccccc2n1CCN1CCOCC1` the Potency was “inactive”. In the case of `CC(CCc1ccccc1)NC(=O)Cn1c(=O)nc(-c2ccccc2F)c2cc(Cl)ccc21` (stereo unspecified), the Potency is reported as “inactive”. For `O=C(NCCOc1ccccc1)C1Nc2ccc(OC(F)(F)F)cc2C2C=CCC12` (stereo unspecified), the Potency was inconclusive [inhibitor, single point]. With `COc1ccccc1NS(=O)(=O)c1ccc2nc(CCl)[nH]c2c1` the Potency was inconclusive [inhibitor, partial curve]. With `Cn1c(=O)c2c(nc(-c3ccccc3)n2C)n(Cc2ccccc2)c1=O` the Potency was active: 20.6 µM. For `Nc1cc(S(=O)(=O)Nc2ccccc2Cl)ccc1N1CCCC1`, the Potency was inconclusive [inhibitor, partial curve, poor fit]. In the case of `COc1ccc(-c2coc3c(C(=O)NCc4cccc(Cl)c4)cccc23)c(C)c1`, the Potency is reported as active: 14.6 µM. In the case of `CCCc1nc2scc(-c3ccc(C)cc3)c2c(=O)n1N`, the Potency is reported as active: 18.4 µM. With `COc1ccc(OC)c(S(=O)(=O)NCc2cc(-c3ccccc3)no2)c1` the Potency was “inactive”. For `CCOC(=O)c1c(C)[nH]c(C)c1S(=O)(=O)NCCc1sccc1C`, the Potency was inconclusive [inhibitor, single point]. In the case of `Brc1ccc(/C=N/Nc2ncnc3c2cnn3Cc2ccccc2)cc1`, the Potency is reported as active: 14.6 µM.
